According to PubChem BioAssay AID651820 (National Center for Advancing Translational Sciences (NCATS), 2012):
The campaign covered roughly 340,000 compounds. About 12,000 (3.5%) were called active. Inconclusive means that the source gave no clear call. Such entries were picked first, then a sample of the others. The call rests on the fitted dose curve; in most records, active means well fitted inhibition curve with a large enough effect; inconclusive means small, poorly fitted or top-dose-only effect, or another doubt; inactive means no such curve, though single readings can be large or run the other way. No potency is given beside an inconclusive call; the fits are too rough.
On the % scale 0 is the no-effect control and ±100 the full control effect; potency means the concentration at half of the fitted maximal effect; tags describe the fitted curve by direction and shape.

Test: qHTS Assay for Inhibitors of Hepatitis C Virus (HCV)
Details: Huh7.5.1 HCVcc-Cre (HCVcc is cell-culture hepatitis C virus) infection, luciferase reporter, 44 h; activity change, negative = inhibition: at 41.8 µM (top of the series) unless noted
Procedure, shortened: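 Cells (1,000/well) were plated 4 h before compound, then infected with HCVcc-Cre virus (~0.5 moi). After 44 h further culture, infection was read as luciferase luminescence following a 15 min substrate incubation at room temperature.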
In the case of `CCC1=NN2C(=N)/C(=C\c3cccn3-c3ccc(Cl)cc3)C(=O)N=C2S1`, the Potency is reported as inconclusive [inhibitor, single point].
In the case of `CCCCN(C(=O)NC(=O)C1=C(N2CCOCC2)/C(=C/c2ccccc2)CC1)S(C)(=O)=O`, the “activity change, negative = inhibition” value is reported as inactive: 16.3%.
For `CC(C)CC1NC(=S)N(Cc2ccccc2)C1=O` (centres undefined), the Potency was inconclusive [inhibitor, single point].
With `Cc1ccc(C)c(NC(=O)COC(=O)c2nn(C)c(=O)c3ccccc23)c1` the “activity change, negative = inhibition” value was inactive: 22.1%.
With `O=C(NCCn1cc(SCc2ccccc2)c2ccccc21)c1c(F)cccc1F` the Potency was inconclusive [inhibitor, single point].
For `CCOc1ccc(N2CC(C(=O)Nc3cccc(C(=O)NC4CC4)c3)CC2=O)cc1` (centres undefined), the “activity change, negative = inhibition” value was inactive: 4.69%.
With `CCNC(=O)C1(c2ccccc2)CCCC1` the “activity change, negative = inhibition” value was inactive: 18%.
With `COc1cccc(=O)c2c(C)n(CC(=O)c3ccccc3)c(C)c12` the “activity change, negative = inhibition” value was inactive: -24.6%.
In the case of `C=Cn1cc[n+](CC(=O)c2ccc(Br)s2)c1`, the “activity change, negative = inhibition” value is reported as inactive: 9.42%.
With `O=C(Nc1ccn(Cc2c(F)c(F)cc(F)c2F)n1)c1ccc(COc2ccccc2Cl)cc1` the Potency was active: 12.6 µM.
For `O=C(Oc1ccc(Cl)cc1)N1CCOCC1`, the “activity change, negative = inhibition” value was inactive: -7.73%.
With `Cc1ccc(-c2cc(C(F)(F)F)n3ncc(C(=O)NCc4ccco4)c3n2)cc1` the Potency was inconclusive [inhibitor, single point].
With `Cn1cc([N+](=O)[O-])c(C(=O)n2cccn2)n1` the “activity change, negative = inhibition” value was inactive: 20%.
With `O=C(O)C(S)C(S)C(=O)O` (centres undefined) the Potency was inconclusive [inhibitor, single point].
With `CCOc1ccccc1NC(=O)c1ccc(-n2cncn2)nc1` the Potency was inconclusive [inhibitor, partial curve, poor fit].
With `Cc1nc(N)nc(N)c1Oc1ccc(Cl)cc1` the Potency was inconclusive [inhibitor, single point].
With `CCOc1ccc(NC(=O)c2ccc3c(=O)n4c(nc3c2)CCCCC4)cc1` the Potency was active: 11.2 µM.
For `COc1ccc(N2CC(C(=O)Nc3ccccc3N3CCCC3)CC2=O)c(OC)c1` (centres undefined), the Potency was active: 8.91 µM.
With `CC(C)c1ccc(CNc2ccc([N+](=O)[O-])cn2)cc1` the Potency was inconclusive [inhibitor, single point].
For `CCN(CC)c1ccc(-c2n[nH]c(=S)n2-c2ccccc2C)cc1`, the Potency was inconclusive [inhibitor, partial curve].
In the case of `CC(C)NC(=O)COc1coc(CN2CCN(c3cccc(Cl)c3)CC2)cc1=O`, the “activity change, negative = inhibition” value is reported as inactive: 3.11%.
For `CN(C)c1nc(=S)nc(NCc2ccccc2)[nH]1`, the Potency was inconclusive [inhibitor, single point].
For `N=c1c(C(=O)NC2CCCC2)cc2c(=O)n3ccccc3nc2n1Cc1ccccc1`, the Potency was inconclusive [inhibitor, full curve].
For `CCC(C)NC(=O)c1cc2cc3ccc(OC)cc3nc2s1` (centres undefined), the Potency was inconclusive [inhibitor, partial curve].
In the case of `O=C(COc1nsnc1N1CCOCC1)N/N=C/c1ccccc1O`, the Potency is reported as inconclusive [inhibitor, single point].
In the case of `Cc1ccccc1OCc1occc1C(=O)Nc1cccc(-n2cnnn2)c1`, the Potency is reported as inconclusive [inhibitor, single point].
With `COc1ccc(N(CC(=O)NCc2ccc3c(c2)OCO3)S(=O)(=O)c2ccccc2[N+](=O)[O-])c(OC)c1` the Potency was inconclusive [inhibitor, single point].
With `CC1(C)Cc2c(cnn2-c2ccc(F)cc2)C(NC(=O)CCN2CCCCC2=O)C1` (centres undefined) the “activity change, negative = inhibition” value was inactive: 3.53%.
In the case of `O=C(Nc1nc(-c2cccs2)cs1)c1cccc(S(=O)(=O)N2CCCCCC2)c1`, the Potency is reported as active: 11.2 µM.
In the case of `Cc1ccc(-n2c(C)c([N+](=O)[O-])c3ccc(O)c(CN(C)C)c32)cc1`, the Potency is reported as inconclusive [inhibitor, full curve].
In the case of `CCC(c1nnnn1CCOC)N(Cc1ccc(C)cc1)Cc1cc2cc(OC)ccc2[nH]c1=O` (centres undefined), the Potency is reported as “inactive”.
For `Cc1c(Cl)cccc1NC(=O)CCCCCN1C(=O)CCC1=O`, the “activity change, negative = inhibition” value was inactive: 13.4%.
In the case of `COc1ccccc1C1(CCNC(C)c2cccs2)CCOC(C(C)C)C1` (centres undefined), the activity change, negative = inhibition is reported as inconclusive: -46.9% [inhibitor].
For `OC(CN1C2=NCCN2c2ccccc21)c1ccccc1` (centres undefined), the “activity change, negative = inhibition” value was inactive: -8.8%.
With `COc1ccc2c(OC)cc(=O)n(C)c2c1` the Potency was inconclusive [inhibitor, single point].
In the case of `O=C(c1cnccn1)N1CCc2c([nH]c3ccccc23)C1c1cccc(Cl)c1` (centres undefined), the Potency is reported as inconclusive [inhibitor, single point].
In the case of `Cc1cc(C)c(C)c(S(=O)(=O)Nc2ccccc2C(=O)NCCCn2ccnc2)c1C`, the Potency is reported as inconclusive [inhibitor, single point].
With `CCN(CC)CCOC(=O)c1ccc(N/C=C(/C#N)c2nc(-c3cc4ccccc4oc3=O)cs2)cc1` the “activity change, negative = inhibition” value was inactive: 3.15%.
In the case of `CNS(=O)(=O)c1ccc(NCC2COc3ccccc3O2)c([N+](=O)[O-])c1` (centres undefined), the Potency is reported as inconclusive [inhibitor, single point].
In the case of `Cc1ccc(NC(=S)N2CCC(NC(=O)c3ccc(F)cc3)CC2)cc1`, the “activity change, negative = inhibition” value is reported as inactive: 9.26%.
For `Cc1ccc(-c2csc(N3CCC(NS(=O)(=O)c4ccc5c(c4)OCCO5)CC3)n2)cc1`, the Potency was active: 10 µM.
With `CC(C)(C)c1csc(NNC(=O)c2ccc(Cl)cc2)n1` the Potency was inconclusive [inhibitor, single point].
For `Cc1ccc(-n2ncc3c(=O)n(CC(=O)OCc4ccccc4)cnc32)cc1`, the “activity change, negative = inhibition” value was inactive: 9.42%.
For `COC(=O)/C=C/C(=O)Nc1cccnc1`, the Potency was inconclusive [inhibitor, partial curve].
In the case of `S=C(Nc1ccccc1)Nc1nc2ccccc2n1CCOc1ccccc1`, the Potency is reported as active: 6.31 µM.
With `CCC(C)c1ccc(Nc2ncccc2C#N)cc1` (centres undefined) the “activity change, negative = inhibition” value was inactive: -7.39%.
In the case of `Cc1cccc(-n2c(C)cc(/C=N\NC(=O)c3cccs3)c2C)c1`, the Potency is reported as inconclusive [inhibitor, full curve].
With `COc1ccc(/C=C2\SC(=O)NC2=S)cc1OC` the Potency was inconclusive [inhibitor, single point].
With `NC(=O)CC(NC(=O)Cc1cccc2ccccc12)c1ccc(N2CCCCCC2)c([N+](=O)[O-])c1` (centres undefined) the Potency was inconclusive [inhibitor, single point].
In the case of `CCn1c(/C=N/NC(=O)c2ccc(OC)cc2)nc2ccccc21`, the Potency is reported as active: 17.8 µM.
With `O=C(NCCN1CCOCC1)c1ccc2c(c1)N(Cc1c(F)cccc1Cl)C(=O)c1ccccc1S2` the Potency was inconclusive [inhibitor, single point].
For `COc1ccc2cc(C(N)=O)c(=Nc3ccccc3)oc2c1`, the Potency was inconclusive [inhibitor, single point].
With `COc1ccc(CCNCc2ccc(OCc3ccccc3)cc2)cc1` the “activity change, negative = inhibition” value was inactive: -8.74%.
With `Cc1nnc(NC(=O)c2nn(CC(C)C)c(=O)c3ccccc23)s1` the “activity change, negative = inhibition” value was inactive: 13.3%.
With `C/C(=N\NC(=S)Nc1ccc(F)cc1)c1ccc2c(c1)OCCO2` the Potency was inconclusive [inhibitor, single point].
For `COc1ccc(NC(=O)c2ccccc2NC(=O)c2cccs2)cc1`, the Potency was inconclusive [inhibitor, single point].
For `COc1ccc(Cl)cc1NC(=O)CN(C)C(=O)c1cc2c(F)cccc2s1`, the Potency was active: 3.98 µM.
With `COc1ccc(N2CCN(C3CC(=O)N(Cc4ccc(N5CCCC5=O)cc4)C3=O)CC2)cc1` (centres undefined) the Potency was inconclusive [inhibitor, single point].
With `COc1ccc(-c2nnc3ccc(SCC(=O)NCC4CCCO4)nn23)cc1` (centres undefined) the Potency was inconclusive [inhibitor, single point].
For `Cc1ccc(N(C)S(=O)(=O)c2cccc(C(=O)NCC(c3cccs3)N3CCOCC3)c2)cc1` (centres undefined), the Potency was inconclusive [inhibitor, full curve, poor fit].
In the case of `CS(=O)(=O)N1CCN(c2ccccc2NC(=O)c2ccc3ccccc3c2)CC1`, the Potency is reported as inconclusive [inhibitor, single point].
With `CCN(CC)S(=O)(=O)c1ccc(/C=C/C(=O)Nc2ccc(F)c(F)c2F)cc1` the Potency was active: 1.41 µM.
For `COc1cc(/C=N/Nc2ccc([N+](=O)[O-])cc2S(=O)(=O)N2CCOCC2)cc(OC)c1OC`, the Potency was inconclusive [inhibitor, partial curve].
For `CCOC(=O)c1ccc(NC(=O)CC2OCCN(CC)C2=O)cc1` (centres undefined), the “activity change, negative = inhibition” value was inactive: -1.39%.
For `O=C(C1=C(O)C(=O)N(CCCN2CCOCC2)C1c1ccncc1)c1cc2ccccc2o1` (centres undefined), the “activity change, negative = inhibition” value was inactive: 6.34%.
In the case of `CCOC(=O)Cc1cc(=O)[nH]n(-c2ccccc2)c1=O`, the Potency is reported as inconclusive [inhibitor, single point].
With `O=C(O)Cc1ccc(-n2cccc2)cc1` the “activity change, negative = inhibition” value was inactive: 23.9%.
For `COc1cc(NC(C)=O)c2ncccc2c1[N+](=O)[O-]`, the “activity change, negative = inhibition” value was inactive: -0.153%.
With `O=C(CN1C2CCCC1CC(NC(=O)C1CCCCC1)C2)NCc1ccc(F)cc1` (centres undefined) the Potency was inconclusive [inhibitor, single point].
In the case of `COc1ccccc1C(=O)N/C(=C/c1ccco1)C(=O)Nc1cccc(C(=O)O)c1`, the “activity change, negative = inhibition” value is reported as inactive: 31.1%.
With `Cc1cccc(Nc2nc(N3CCN(C)CC3)nc(N)c2[N+](=O)[O-])c1` the Potency was inconclusive [inhibitor, full curve].
For `C=C1CCC[C@]2(C)C[C@H]3OC(=O)C(CNC(C)CCCC(C)C)[C@H]3CC12` (some centres undefined), the Potency was inconclusive [inhibitor, single point].
For `Cc1cc(C)c2cc(CN(Cc3ccc4c(c3)OCO4)Cc3nnnn3Cc3ccco3)c(=O)[nH]c2c1`, the Potency was inconclusive [inhibitor, single point].
For `COc1ccc(N2CCN(C(=O)Cc3csc(NC(=O)Nc4ccccc4OC)n3)CC2)cc1`, the Potency was inconclusive [inhibitor, full curve].
